# Source: the supplement of paper PMC4466236
# In all, about 33,000 sequences were measured (“E-score (dimensionless, -0.5 to 0.5)”: median about -0.058, highest 2% from about 0.35 on). This is one part of the list.
# Tested on: MvaT
# Experiment: PBM 8-mer E-score (mean of HK and ME arrays) (E-score (dimensionless, -0.5 to 0.5)); higher = stronger relative binding preference; most listed sequences are background and not binding sites
# How it was run: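 Full-length P. aeruginosa MvaT, with glutathione S-transferase fused to its N-terminus (cloned into pTH6838 by isothermal assembly), was tested by protein binding microarray using a previously described protocol. Two universal double-stranded 60-mer arrays (ME and HK) were used, each with a constant 25-mer primer region and a variable 35-mer region covering all 8-mers. The rank-based 8-mer E-score (-0.5 to 0.5) is the mean of the two arrays, parsed with a custom Python script.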
row,Sequence,PBM 8-mer E-score
1,CAAGTATA,0.373
2,CACGGAGG,-0.283
3,AGAGCCGA,-0.159
4,AGCTTTCC,-0.2
5,ATCCGAAC,0.0505
6,CTAGTACA,0.0584
7,GGCTATTA,0.0259
8,AGGTGAGA,-0.13
9,CGTACCAA,-0.0836
10,CTCTGTGA,-0.119
11,AAACAGCG,0.02
12,GTGGACGA,-0.223
13,ACCACGAA,0.0524
14,ACGTGATG,-0.114
15,CCATACCC,-0.297
16,CGGAGACA,0.0514
17,CTGTGGGC,-0.231
18,GGCACCGA,-0.268
19,CTGGGAGC,-0.284
20,AGGAGGGC,-0.283
21,CCATTCCA,-0.0993
22,GCGAAATA,0.224
23,AACGCGTC,-0.116
24,AAAACATC,0.109
25,CAACAGAG,-0.0794

row,Sequence,PBM 8-mer E-score
1,CGCGGTGA,-0.142
2,GAAGCAAC,-0.0872
3,AATCGCGC,0.0207
4,AAAATTCG,0.227
5,ACCCTTAT,0.226
6,CCCCCGGA,-0.286
7,CATAACGC,0.0755
8,CATAGCGC,-0.167
9,GAACTTCC,-0.0433
10,AGATATCA,0.194
11,TGGTATAA,0.326
12,CGTTTGAG,-0.0747
13,CCACACGA,-0.0134
14,AAACGAAA,0.199
15,AAGCTCAG,-0.164
16,TAAGCTCA,0.0524
17,GATGTGAA,0.00288
18,AACGCGTT,0.0635
19,GTTCCCCA,-0.038
20,TAGGAACA,-0.0111
21,GATATACC,0.178
22,AAACTTCC,0.136
23,AGTGTGTA,0.144
24,GAGTTATC,0.0914
25,CACCTTTA,0.145

row,Sequence,PBM 8-mer E-score
1,ATACCTAG,0.115
2,AAGAGGAG,-0.158
3,GATAGTGC,0.165
4,ACTAATGG,0.191
5,CGGCGCCA,-0.12
6,ACGCCCCG,-0.272
7,CCTGACAC,-0.0828
8,CAGAGCCG,-0.328
9,GATTCAAA,0.125
10,CATCCCAC,-0.161
11,AACAAGCT,-0.0831
12,GTTTGGGA,0.222
13,CCACCCGC,-0.232
14,ACACCACT,0.0056
15,AATGTCCA,0.00458
16,CAAATTCA,0.174
17,GATTTACC,0.113
18,ATGGCAAT,0.137
19,CTAGCTAC,-0.157
20,GACCGGGA,-0.204
21,GTAATTGA,0.264
22,AGTCCGAG,-0.29
23,ACAACCAT,0.00184
24,AGCTCACC,-0.255
25,CCACTGAG,-0.11

row,Sequence,PBM 8-mer E-score
1,GATCCAAA,-0.108
2,TACTACTA,0.181
3,AGCACTGG,-0.17
4,CGCGATTC,-0.0253
5,AGATCACC,-0.118
6,ACCGCATC,-0.114
7,CGAATCAG,-0.121
8,ACACTCGT,-0.0141
9,CTCATCTA,0.0114
10,TACCGGGA,-0.00065
11,AGTACAGA,0.0485
12,AACATTAA,0.397
13,CAAACAGG,-0.0105
14,CAGCGGGC,-0.334
15,CTCGAAAC,-0.0552
16,AATACAAG,0.208
17,CAGCTCCA,-0.159
18,CCGCCCCC,-0.391
19,GCTTCATA,-0.0831
20,AAGCAAAA,0.128
21,CACACGGG,-0.187
22,GCGATAGC,-0.262
23,TAGAGAAA,0.0338
24,CTAATTTC,0.0429
25,CAAATACA,0.229

row,Sequence,PBM 8-mer E-score
1,CTGTGGGA,-0.18
2,CCGAGGGA,-0.185
3,CGGGCCCC,-0.255
4,GGTGACAC,-0.162
5,AGGCGCCA,-0.201
6,CAGATTCG,0.0215
7,CCAGACCC,-0.274
8,ACCAGATG,-0.189
9,TCGCACGA,-0.0516
10,GGGACTCA,-0.218
11,TCAAGACA,-0.103
12,AGTTTGGC,0.0422
13,AATAAAAG,0.309
14,CCAAGTCA,-0.0101
15,CCTGCTCC,-0.302
16,AATCATGA,0.205
17,AAAAACTT,0.234
18,CGAGCAGA,-0.27
19,CGAGAAAG,-0.187
20,AAGTTTGC,0.199
21,ATCATGGA,-0.06
22,GCCGCGGC,-0.0684
23,AACGCACA,0.104
24,CATAGCGG,-0.166
25,ATTTCCTC,0.0702

row,Sequence,PBM 8-mer E-score
1,AACTCGTA,0.22
2,CGCTCTGC,-0.244
3,AAGAAGTC,0.0453
4,ATTTTTCA,0.145
5,AGAAGAGA,-0.073
6,ATGCTTGG,-0.132
7,CTACGAGA,-0.0941
8,ATCGATCC,0.02
9,CATGCGCG,-0.224
10,TAACCGCA,0.163
11,CGATCAAA,0.0625
12,AGGAATTA,0.226
13,CCTCCCCG,-0.317
14,CAGTTTCG,0.0668
15,CTTCTGTA,0.0958
16,GGGTTAAA,0.221
17,AATGGAGC,-0.0684
18,GGTCCGAC,-0.163
19,AACTTCCC,0.065
20,GCGACCGA,-0.173
21,AGATGAGA,0.0308
22,AATCTAAA,0.263
23,CTGATATC,0.0923
24,AACGATGG,0.0077
25,ACAGAACT,0.136

row,Sequence,PBM 8-mer E-score
1,ACCCTGAT,-0.12
2,ACACAGTA,0.0817
3,ATTTGACC,-0.0256
4,AAGTCTAG,-0.132
5,ACCATGAC,-0.124
6,GCGGAAAA,0.161
7,GCAAGGAC,0.0233
8,GCACCTGA,-0.165
9,AAGACAAC,0.0417
10,CAGAGAGG,-0.235
11,GGAGTGAC,-0.185
12,CCTTCTCG,-0.235
13,GTGCACGA,-0.072
14,ATGATATG,0.199
15,CACCGCTC,-0.138
16,GTCGAACA,-0.0589
17,ACTTTGAA,0.163
18,CAGTAGTC,-0.116
19,ACTTAGCG,0.0909
20,AGGCAAAC,-0.122
21,ATCACCAC,-0.0324
22,ATAAGGGC,0.0188
